Where two headings read alike, the source gives them in different places.
Target: human CB2 receptor (hCB2) (Homo sapiens, UniProt P34972)
Assay: cell-based
Type: cell-based
Settings: for +/− HCB2: agonist or inverse agonist at hCB2
[1] = groups >100 nM-10 μM and >10 μM, cAMP, CHO-K1 hCB2, read-out: EC50 HCB2

human CB2 receptor (hCB2), sequence (P34972 whole entry): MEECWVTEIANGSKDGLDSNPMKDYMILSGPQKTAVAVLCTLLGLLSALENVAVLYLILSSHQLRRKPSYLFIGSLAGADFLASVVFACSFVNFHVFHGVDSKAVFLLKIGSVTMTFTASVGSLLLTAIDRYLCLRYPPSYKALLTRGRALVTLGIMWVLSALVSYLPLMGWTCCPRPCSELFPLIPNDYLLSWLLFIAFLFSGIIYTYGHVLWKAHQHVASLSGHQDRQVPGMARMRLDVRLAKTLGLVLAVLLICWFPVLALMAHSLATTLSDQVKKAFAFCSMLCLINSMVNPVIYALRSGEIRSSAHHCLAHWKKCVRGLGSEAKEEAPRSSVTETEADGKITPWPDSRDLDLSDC

Row | Compound | EC50 [nM] | +/− HCB2 | other results
1 | CN1CCn2c(-c3ccc(Cl)cc3F)nc(C(=O)N3CCC(C(N)=O)(N4CCOCC4)CC3)c2C1 [Compound 225] | > 10000 |  | 
2 | CC12CCC(C1)C(C)(C)C2NC(=O)c1nc(-c2ccccc2)n2c1CN(C(=O)C1CC1)CC2 (stereo not drawn) [Compound 119, 7-(cyclopropanecarbonyl)-3-phenyl-N-(1,3,3-trimethyl-bicyclo [2.2.1]heptan-2-yl)-5,6,7,8-tetrahydroimidazo[1,5-a]pyrazine-1-carboxamide] |  | + | 
3 | CCN1CCn2c(-c3ccc(Cl)cc3)nc(C(=O)NCCC(C)C)c2C1 [Compound 158, 3-(4-chlorophenyl)-7-ethyl-N-isopentyl-5,6,7,8-tetrahydroimidazo[1,5-a]pyrazine-1-carboxamide] | > 10000 |  | 
4 | CN1CCCn2c(-c3cc(F)ccc3F)nc(C(=O)N[C@H](C(=O)N(C)C)C(C)(C)C)c2C1 [Compound 562, (S)-3-(2,5-difluorophenyl)-N-(1-(dimethylamino)-3,3-dimethyl-1-oxobutan-2-yl)-8-methyl-6,7,8,9-tetrahydro-5H-imidazo[1,5-a][1,4]diazepine-1-carboxamide] |  | + | 
5 | CNC(=O)[C@@H](NC(=O)c1nc(-c2cc(F)c(OC)cc2F)n2c1CN(C)CCC2)C(C)(C)C [Compound 424, (S)-3-(2,5-difluoro-4-methoxyphenyl)-N-(3,3-dimethyl-1-(methylamino)-1-oxobutan-2-yl)-8-methyl-6,7,8,9-tetrahydro-5H-imidazo[1,5-a][1,4]diazepine-1-carboxamide] |  | + | 
6 | CNC(=O)[C@@H](NC(=O)c1nc(-c2cc(F)cc(F)c2)n2c1CN(C)CCC2)C(C)(C)C [Compound 331, (S)-3-(3,5-difluorophenyl)-N-(3,3-dimethyl-1-(methylamino)-1-oxobutan-2-yl)-8-methyl-6,7,8,9-tetrahydro-5H-imidazo[1,5-a][1,4]diazepine-1-carboxamide] |  | + | 
7 | Cc1cnc(CNC(=O)c2nc(-c3ccccc3)n3c2CN(C)CC3)cn1 [Compound 237, 7-methyl-N-((5-methylpyrazin-2-yl)methyl)-3-phenyl-5,6,7,8-tetrahydroimidazo[1,5-a]pyrazine-1-carboxamide] | > 10000 |  | 
8 | CCN(CC)C/C=C/c1nc(C(=O)N[C@H](C(=O)NC)C(C)(C)C)c2n1CCCN(C)C2 [Compound 512, (S,E)-3-(3-(diethylamino)prop-1-enyl)-N-(3,3-dimethyl-1-(methylamino)-1-oxobutan-2-yl)-8-methyl-6,7,8,9-tetrahydro-5H-imidazo[1,5-a][1,4]diazepine-1-carboxamide] | > 10000 |  | 
9 | CNC(=O)[C@@H](NC(=O)c1nc(-c2cccc(F)c2)n2c1CN(C)CC2)C(C)(C)C [Compound 244, (S)-N-(3,3-dimethyl-1-(methylamino)-1-oxobutan-2-yl)-3-(3-fluorophenyl)-7-methyl-5,6,7,8-tetrahydroimidazo[1,5-a]pyrazine-1-carboxamide] |  | + | 
10 | CC(C)CN1CCn2c(-c3ccccc3)nc(C(=O)N[C@H](C)C3CCCCC3)c2C1 [Compound 163, (R)-N-(1-cyclohexylethyl)-7-isobutyl-3-phenyl-5,6,7,8-tetrahydroimidazo[1,5-a]pyrazine-1-carboxamide] |  | + | 
11 | CNC(=O)[C@@H](NC(=O)c1nc(-c2cccc(F)c2)n2c1CNCC2)C(C)(C)C [Compound 4, (S)-N-(3,3-dimethyl-1-(methylamino)-1-oxobutan-2-yl)-3-(3-fluorophenyl)-5,6,7,8-tetrahydroimidazo[1,5-a]pyrazine-1-carboxamide] |  | + | 
12 | C[C@@H](NC(=O)c1nc(-c2ccccc2)n2c1CN(CCO)CC2)C1CCCCC1 [Compound 140, (R)-N-(1-cyclohexylethyl)-7-(2-hydroxyethyl)-3-phenyl-5,6,7,8-tetrahydroimidazo[1,5-a]pyrazine-1-carboxamide] |  | + | 
13 | C=Cc1nc(C(=O)N[C@H](C(=O)NC)C(C)(C)C)c2n1CCN(C)C2 [Compound 266, (S)-N-(3,3-dimethyl-1-(methylamino)-1-oxobutan-2-yl)-7-methyl-3-vinyl-5,6,7,8-tetrahydroimidazo[1,5-a]pyrazine-1-carboxamide] |  | + | 
14 | CNC(=O)[C@@H](NC(=O)c1nc(-c2ccccc2)n2c1CN(CC(C)C)CCC2)C(C)(C)C [Compound 320, (S)-N-(3,3-dimethyl-1-(methylamino)-1-oxobutan-2-yl)-8-isobutyl-3-phenyl-6,7,8,9-tetrahydro-5H-imidazo[1,5-a][1,4]diazepine-1-carboxamide] | > 10000 |  | 
15 | CN1CCn2c(-c3ccc(Cl)cc3F)nc(C(=O)N3CCC(n4c(=O)[nH]c5ccccc54)CC3)c2C1 [Compound 215, 1-(1-(3-(4-chloro-2-fluorophenyl)-7-methyl-5,6,7,8-tetrahydroimidazo[1,5-a]pyrazine-1-carbonyl)piperidin-4-yl)-1H-benzo[d]imidazol-2(3H)-one] |  |  | EC50 [1]: > 10000 nM
16 | CNC(=O)[C@@H](NC(=O)c1nc(-c2cccnc2)n2c1CN(C)CCC2)C(C)(C)C [Compound 348, (S)-N-(3,3-dimethyl-1-(methylamino)-1-oxobutan-2-yl)-8-methyl-3-(pyridin-3-yl)-6,7,8,9-tetrahydro-5H-imidazo[1,5-a][1,4]diazepine-1-carboxamide] |  | + | 
17 | CCS(=O)(=O)N1CCn2c(-c3ccccc3)nc(C(=O)NN3CCCCC3)c2C1 [Compound 115, 7-(ethylsulfonyl)-3-phenyl-N-(piperidin-1-yl)-5,6,7,8-tetrahydroimidazo[1,5-a]pyrazine-1-carboxamide] |  |  | EC50 [1]: > 10000 nM
18 | COC(=O)N1CCn2c(-c3ccc(Cl)cc3)nc(C(=O)N[C@H](CO)C(C)(C)C)c2C1 [Compound 184, (S)-methyl 3-(4-chlorophenyl)-1-(1-hydroxy-3,3-dimethylbutan-2-ylcarbamoyl)-5,6-dihydroimidazo[1,5-a]pyrazine-7(8H)-carboxylate] | > 10000 |  | 
19 | CNC(=O)[C@@H](NC(=O)c1nc(-c2ccccc2)n2c1CN(Cc1cccn1C)CC2)C(C)(C)C [Compound 71, (S)-N-(3,3-dimethyl-1-(methylamino)-1-oxobutan-2-yl)-7-((1-methyl-1H-pyrrol-2-yl)methyl)-3-phenyl-5,6,7,8-tetrahydroimidazo[1,5-a]pyrazine-1-carboxamide] | > 10000 |  | 
20 | CC(C)NC(=O)[C@@H](NC(=O)c1nc(-c2ccccc2)n2c1CN(C)CCC2)C(C)(C)C [Compound 472, (S)-N-(1-(isopropylamino)-3,3-dimethyl-1-oxobutan-2-yl)-8-methyl-3-phenyl-6,7,8,9-tetrahydro-5H-imidazo[1,5-a][1,4]diazepine-1-carboxamide] |  | + | 
21 | CNC(=O)[C@@H](NC(=O)c1nc(-c2ccc(C(=O)OC)cc2F)n2c1CN(C)CCC2)C(C)(C)C [Compound 387, (S)-methyl 4-(1-(3,3-dimethyl-1-(methylamino)-1-oxobutan-2-ylcarbamoyl)-8-methyl-6,7,8,9-tetrahydro-5H-imidazo[1,5-a][1,4]diazepin-3-yl)-3-fluorobenzoate] |  | + | 
22 | CCS(=O)(=O)N1CCn2c(-c3ccccc3)nc(C(=O)N[C@H](C(=O)NC)C(C)(C)C)c2C1 [Compound 91, (S)-N-(3,3-dimethyl-1-(methylamino)-1-oxobutan-2-yl)-7-(ethylsulfonyl)-3-phenyl-5,6,7,8-tetrahydroimidazo[1,5-a]pyrazine-1-carboxamide] |  | + | 
23 | Cc1noc([C@@H](NC(=O)c2nc(-c3ccccc3)n3c2CN(CC(C)C)CC3)C(C)(C)C)n1 [Compound 90, (S)-N-(2,2-dimethyl-1-(3-methyl-1,2,4-oxadiazol-5-yl)propyl)-7-isobutyl-3-phenyl-5,6,7,8-tetrahydroimidazo[1,5-a]pyrazine-1-carboxamide] | > 10000 |  | 
24 | CNC(=O)[C@@H](NC(=O)c1nc(-c2ccc(F)c(C)c2)n2c1CN(C)CCC2)C(C)(C)C [Compound 347, (S)-N-(3,3-dimethyl-1-(methylamino)-1-oxobutan-2-yl)-3-(4-fluoro-3-methylphenyl)-8-methyl-6,7,8,9-tetrahydro-5H-imidazo[1,5-a][1,4]diazepine-1-carboxamide] |  | + | 
25 | CNC(=O)[C@@H](NC(=O)c1nc(-c2ccc(S(C)(=O)=O)cc2)n2c1CN(C)CCC2)C(C)(C)C [Compound 379, (S)-N-(3,3-dimethyl-1-(methylamino)-1-oxobutan-2-yl)-8-methyl-3-(4-(methylsulfonyl)phenyl)-6,7,8,9-tetrahydro-5H-imidazo[1,5-a][1,4]diazepine-1-carboxamide] | > 10000 |  | 
26 | CNC(=O)[C@H](CC(C)C)NC(=O)c1nc(-c2ccc(F)c(Cl)c2)n2c1CN(C)CCC2 [Compound 537, (S)-3-(3-chloro-4-fluorophenyl)-8-methyl-N-(4-methyl-1-(methylamino)-1-oxopentan-2-yl)-6,7,8,9-tetrahydro-5H-imidazo[1,5-a][1,4]diazepine-1-carboxamide] |  | + | 
27 | CCS(=O)(=O)N1CCn2c(-c3ccc(Cl)cc3)nc(C(=O)NCCC(C)C)c2C1 [Compound 116, 3-(4-chlorophenyl)-7-(ethylsulfonyl)-N-isopentyl-5,6,7,8-tetrahydroimidazo[1,5-a]pyrazine-1-carboxamide] | > 10000 |  | 
28 | CNC(=O)[C@@H](NC(=O)c1nc(C2=CCNCC2)n2c1CN(C)CC2)C(C)(C)C [Compound 274, (S)-N-(3,3-dimethyl-1-(methylamino)-1-oxobutan-2-yl)-7-methyl-3-(1,2,3,6-tetrahydropyridin-4-yl)-5,6,7,8-tetrahydroimidazo[1,5-a]pyrazine-1-carboxamide] |  | − | 
29 | CNC(=O)[C@@H](NC(=O)c1nc(C(C)C(C)C)n2c1CN(C)CCC2)C(C)(C)C (stereo partly drawn) [Compound 507, N-((S)-3,3-dimethyl-1-(methylamino)-1-oxobutan-2-yl)-8-methyl-3-(3-methylbutan-2-yl)-6,7,8,9-tetrahydro-5H-imidazo[1,5-a][1,4]diazepine-1-carboxamide] |  | + | 
30 | CN1CCCn2c(-c3ccccc3)nc(C(=O)N[C@H](C(=O)NC3CC3)C(C)(C)C)c2C1 [Compound 477, (S)-N-(1-(cyclopropylamino)-3,3-dimethyl-1-oxobutan-2-yl)-8-methyl-3-phenyl-6,7,8,9-tetrahydro-5H-imidazo[1,5-a][1,4]diazepine-1-carboxamide] |  | + | 

Reference: patent US7517874B2 (priority 2007, dated 2009)
